# Data reported in the supplement of paper PMC3334620.
# The full ranking holds about 33,000 sequences; the median of “E-score (-0.5 to 0.5)” is about -0.01, and the highest 2% start at about 0.26. The list shows a part of the results.
# Molecular target: Ste12 (UniProt P13574)
# Assay: PBM E-score (8-mer binding enrichment) (E-score (-0.5 to 0.5)); higher = stronger / more preferred TF binding; most listed sequences are background and not binding sites
# Details: protein concentration: 200 nM; construct: GST-DNA-binding domain
# How it was run: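 Yeast transcription factors carrying a GST tag, as full-length proteins or DNA-binding domains, were produced by PURExpress in vitro transcription/translation. About 100-200 nM protein was applied to universal all-10-mer Agilent arrays, double-stranded by primer extension on fresh or once-stripped slides. Bound protein was detected with fluorescent anti-GST, and scans were normalised with masliner. The Universal PBM Analysis Suite gave each ungapped eight-base word, pooled with its reverse complement, an E-score, a modified Wilcoxon-Mann-Whitney statistic.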
row,Sequence,PBM E-score
1,AGAGATGC,-0.0997
2,ATCCGGAT,0.0708
3,CGACGTAG,-0.309
4,ATGTACAG,-0.0771
5,CAATTCGA,-0.145
6,GCTTATCC,0.0792
7,ATCAGGAT,0.0464
8,CTTCAAAG,-0.00913
9,CAGTCCAC,-0.0647
10,CCAGGTAG,-0.133
11,GCAATTAC,-0.0103
12,TAATCAAA,0.193
13,AAACCTAT,0.016
14,CAATAAGG,-0.166
15,ACTGACCA,-0.0856
16,ATGGCGGC,-0.0608
17,ATTATAGG,0.12
18,AAACCAAC,0.202
19,CAAGTGCA,-0.228
20,ATCGTATA,-0.11
21,AATTACAC,0.109
22,GCAGATCA,-0.109
23,CCTCTACG,-0.283
24,CTATATGA,0.0256
25,TCCTGACA,0.172

row,Sequence,PBM E-score
1,ACCAGGAT,0.0826
2,CCTCCGGC,-0.0362
3,ACACCAAT,0.201
4,ATAAGTGG,0.0151
5,AACGTGCG,-0.0985
6,CTACTTCA,-0.15
7,CGCACCAC,0.0559
8,TCGCTGAA,0.16
9,CACCTTCG,-0.166
10,GGGTATAC,-0.0489
11,CGAATTAG,0.095
12,GCGGACTA,-0.0505
13,ATACATTG,-0.0453
14,ATGTAGGC,-0.134
15,AGGCGGAA,-0.0949
16,GGGCGGTA,-0.0589
17,TCGCACAA,0.0442
18,AGGCAACA,-0.14
19,AGGTCAAT,0.0292
20,AGAGCGTC,-0.193
21,GGCAGCTA,0.016
22,GTGCATCA,0.0365
23,ACACGGTG,-0.116
24,CGGATCGA,0.0353
25,AAAGGCGA,-0.131

row,Sequence,PBM E-score
1,GGCGCTAC,-0.347
2,CCACGGTC,-0.209
3,ACGACCAT,-0.127
4,CCAACCCA,-0.154
5,ATTCAGGC,0.107
6,ATTCCTAG,0.0776
7,ACGGCTTG,-0.0342
8,CGGTGTGC,-0.25
9,TATCTGGA,-0.168
10,ACTTCTAC,-0.032
11,CGCCGACA,-0.0997
12,CACGCCGC,-0.065
13,AGCGTGTC,-0.123
14,ACTGTACA,-0.124
15,TAAAAAAA,0.313
16,GGTTGAGA,-0.103
17,AAGGCAGG,-0.145
18,AACGTGAG,-0.0454
19,CAGAACTG,0.157
20,AATATTCT,0.178
21,AGCGGTAT,0.146
22,CGGACCCA,-0.184
23,CAGCCAAC,-0.0527
24,CTATATAA,0.174
25,ATGAATCC,0.0829

row,Sequence,PBM E-score
1,CTGATGCA,0.099
2,ATGGTGAA,0.141
3,AAAACTAA,0.219
4,GCATTCCA,-0.228
5,CGTACGTA,-0.139
6,AGCGCAGA,0.00465
7,CGCGAAAC,0.211
8,CAGCCGAA,-0.0783
9,CACGGGAG,-0.186
10,ACGGGCCT,-0.249
11,CGCCGGTA,-0.0112
12,AAACTATT,0.188
13,GATCCGGC,-0.0168
14,GTTAAGTA,0.0631
15,CTCATATA,-0.0135
16,CGCATCCC,0.0337
17,AATATCGA,0.127
18,ACAAGCGT,-0.0567
19,AATAAGGT,0.102
20,ATGATAAG,0.128
21,ATCTAGGA,-0.00986
22,CCAGTGCG,-0.171
23,CATGTTGC,-0.0677
24,ACCAATTC,0.0145
25,CGGCTCCA,-0.0979

row,Sequence,PBM E-score
1,ATTCCGCC,0.099
2,CAAACAGA,0.12
3,CCACTCGG,-0.281
4,TATACGCA,-0.0776
5,AGTCGCGC,0.115
6,CCGATGAC,-0.111
7,CGTCCTGC,-0.0864
8,CGATGACC,-0.0798
9,ACAGCGAT,-0.112
10,ATCTTTAG,0.119
11,AGGCTTAG,-0.021
12,GCAAGGAA,-0.112
13,AATTAAAC,0.241
14,CAAAGTAC,-0.0376
15,CACGAATA,-0.0873
16,AGATTCTA,0.153
17,ACCCGTAT,-0.0492
18,GCGTCTAC,-0.233
19,CAGCCATC,-0.0408
20,AGCGGGCG,-0.089
21,ATACTACG,0.106
22,CTATCCGC,-0.0766
23,GACCCAGC,-0.253
24,CTTATTGA,0.0551
25,CAGGTCGG,0.057

row,Sequence,PBM E-score
1,ACCACTTA,-0.0266
2,GCAGGAGA,-0.0128
3,ACGCCGAA,-0.0635
4,CGAACCCG,-0.0547
5,CAATAGGA,-0.058
6,ACAAACGC,0.13
7,AACATTAC,0.0687
8,CGAAACCA,0.209
9,ACCGATAT,-0.00073
10,CATCAATA,0.177
11,CTCGGTAA,-0.107
12,AGATATCT,-0.158
13,AACAACAC,0.154
14,AAGAGACT,0.00125
15,CCATTCGG,-0.14
16,AAGCTTAT,-0.0154
17,AGATGGGC,-0.127
18,TAGTAATA,0.0871
19,ACTACCAT,-0.0168
20,ACTAGGGA,-0.00094
21,GCTCATTA,0.115
22,ATTACGGC,-0.0675
23,GTTGGAAA,0.0291
24,TACGTTAA,0.0218
25,AGAATCTC,-0.0563

row,Sequence,PBM E-score
1,CGTACCCA,0.00206
2,AGTGCGAA,-0.204
3,CTAGCCAA,0.145
4,AATACTCT,0.133
5,ATCCCTCA,-0.2
6,CATTTGCG,0.0745
7,ACGTCCAG,-0.198
8,AGAAGACT,-0.22
9,ATAATTTA,0.357
10,CGACCGTA,-0.161
11,ACGATTGA,0.158
12,CCACCCGA,0.0148
13,CAGAGTTA,0.0591
14,GAGCCCTC,-0.0722
15,GTGCTATA,-0.0325
16,CTTCAAGC,-0.0689
17,GGGTTCCA,-0.122
18,ACTGCAGG,-0.194
19,AGGCATAT,-0.108
20,AAACAGAG,0.154
21,ATACCTTG,-0.0745
22,ATAGGAAC,-0.153
